Results published in PubChem BioAssay AID686978 (National Center for Advancing Translational Sciences (NCATS), 2013).
The whole screen tested about 420,000 compounds, of which about 64,000 (15%) were called active. The shares of active, inactive and inconclusive entries below differ from those in the screen. Calls follow the shape of the dose curve; as a rule, active = well fitted inhibition curve with a large enough effect; inconclusive = small, poorly fitted or top-dose-only effect; inactive = flat fitted curve, though single readings scatter. No potency is given beside an inconclusive call; the fits are too rough.

Test: qHTS for Inhibitors of human tyrosyl-DNA phosphodiesterase 1 (TDP1): qHTS in cells in absence of CPT; also: nearly all actives have a fitted effect of over 55% in size
Details: DT40 Tdp1-/- hTDP1 cells, no CPT, ATP luminescence, 48 h; activity change, negative = growth inhibition: at 46.2 µM (top of the series) unless noted
Summary of the method: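 DT40 Tdp1-/-;hTDP1 cells, no CPT (DMSO vehicle only), 400 cells/well; compounds pin-transferred; ≥48 hr, 37 °C; CellTiter-Glo 30 min RT dark, luminescence read.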
% is scaled to controls: 0 for no effect and ±100 for the full control effect; potency is read from the fitted curve at half-maximal effect; tags tell the direction and shape of the fitted curve.

Structure (SMILES)	activity change, negative = growth inhibition	Potency
C=CCSc1nnc(NC(=O)CSc2nc3ccccc3o2)s1	inconclusive: -31.3% [inhibitor]	
O=C(OCc1ccc([N+](=O)[O-])cc1)C1CCN(S(=O)(=O)c2ccccc2)CC1	inactive: -17%	
Cc1ccc(C)c(S(=O)(=O)Nc2ccc(O)c(C(=O)O)c2)c1	inactive: 6.76%	
Cc1ccc2c(CNCCc3ccc(Cl)cc3)c(C(=O)O)n(Cc3ccc(F)cc3)c2c1		inconclusive [inhibitor, single point]
CCOc1ccc2[nH]cc(C(=O)NCc3ccc(F)cc3)c(=O)c2c1		inconclusive [inhibitor, partial curve, poor fit]
CC1CC(C)CN(CCCNC(=O)c2c(O)nc3ccccn3c2=O)C1 (stereo not drawn)	inactive: -11%	
Cc1ccc(S(=O)(=O)N2CCN(C(=O)C3=COCCO3)CC2)cc1C		inconclusive [inhibitor, single point]
CCCNc1nc2c(c(=O)n(C)c(=O)n2C)n1Cc1cccc(C)c1		active: 5.8 µM
CC1(C)CC(=O)C2=C(C1)N=C1c3ccccc3C(=O)C1C2c1ccc(Cl)cc1 (stereo not drawn)		inconclusive [inhibitor, single point]
COc1ccccc1CNC(=O)COC(=O)Cn1cnc2c1c(=O)n(C)c(=O)n2C	inactive: -10.7%	
CCOc1ccc(CNC(=O)c2ccc3nc(Cc4ccc(OC)cc4)oc3c2)cc1OC		active: 13 µM
CCCCC(=O)N(Cc1ccc2c(c1)OCO2)Cc1nc2ccccc2c(=O)[nH]1		inconclusive [inhibitor, single point]
Cc1ccc(Nc2nnc(SCC(=O)c3ccc(O)cc3O)s2)cc1		inconclusive [inhibitor, single point]
CC(C)c1ccc(S(=O)(=O)NCCCN2CCOCC2)cc1		inconclusive [inhibitor, single point]
O=c1c2sc3ccccc3c2n(Cc2ccccc2)c(=O)n1Cc1ccccc1	inactive: -21.9%	
COc1ccccc1NC(=O)c1ccc(Br)c(S(=O)(=O)N2CCCC2)c1		inconclusive [inhibitor, partial curve, poor fit]
Cc1ccc(Cl)cc1NC(=O)c1ccc(-c2nc(CSc3ccccc3)c(C)o2)cc1		active: 6.51 µM
CC(C)c1ccc(OCCCCN2CCCCC2)cc1		inconclusive [inhibitor, single point]
COc1cc(CNC(=O)Nc2nc(C(N)Cc3ccc(Cl)cc3)cs2)cc(OC)c1OC (stereo not drawn)		active: 18.4 µM
Cc1nc2ccc(-c3nc4ccccc4[nH]3)cc2[nH]1		inconclusive [inhibitor, partial curve, poor fit]
COc1ccc([C@@H]2[C@@H]3C(=O)N(C(C)(C)C)C(=O)[C@@H]3[C@]3(Cc4ccc(Cl)cc4)C(=O)N(c4cccc(F)c4)C(=O)N23)cc1		inconclusive [inhibitor, partial curve]
CCc1ccc(CN(C(=O)c2nc(SC)ncc2Cl)C2CCS(=O)(=O)C2)cc1 (stereo not drawn)		inconclusive [inhibitor, partial curve, poor fit]

Structure (SMILES)	activity change, negative = growth inhibition	Potency
CC(Nc1ccccc1N1CCCCC1)C(=O)N1CCc2ccccc21 (stereo not drawn)		active: 16.4 µM
CSc1nc(-c2ccccc2)nn1C(=O)c1ccccc1		active: 23.1 µM
COc1ccc(Cn2c(C3CC3)nc3ccc(NC(=O)C4CC4)cc3c2=O)cc1		inconclusive [inhibitor, partial curve]
Cc1nnc2n(Cc3ccccc3)c(=O)c3c4c(sc3n12)COC(C)(C)C4		inconclusive [inhibitor, partial curve, poor fit]
O=C1c2ccccc2C(=O)N1c1ccc(S(=O)(=O)N2CCCCC2)cc1	inactive: 6.34%	
CCN(CC)C(=O)C1CCCN(c2ccc([N+](=O)[O-])cc2[N+](=O)[O-])C1 (stereo not drawn)		inconclusive [inhibitor, partial curve]
CCOC(=O)C1C(=O)C=C(c2ccc(C)cc2)CC1c1ccc([N+](=O)[O-])cc1 (stereo not drawn)		active: 13 µM
CN(C)C(=O)c1ccc(-c2ccc3ncnc(N(C)Cc4ccco4)c3c2)cc1		inconclusive [inhibitor, partial curve, poor fit]
CCOC(=O)c1cnc2ccc(F)cc2c1Nc1ccc2c(c1)OCCO2		inconclusive [inhibitor, single point]
Cc1ccc(Oc2cc(NC(=O)CCCn3nc([N+](=O)[O-])cc3C)cc([N+](=O)[O-])c2)cc1		inconclusive [inhibitor, single point]
COC(=O)c1cccc(NCN2C(=O)c3ccccc3C2=O)c1	inactive: -27.3%	
NC(=O)c1cn(-c2ccccc2)nc1-c1cc2ccccc2oc1=O		inconclusive [inhibitor, full curve, poor fit]
Clc1ccccc1-c1nnc(-c2ccc3c(c2)OCO3)o1		inconclusive [inhibitor, partial curve]
CCc1ncc(CN2CCC(C(=O)Nc3cccc(-c4cscn4)c3)CC2)cn1		inconclusive [inhibitor, single point]
CCCCNC(=O)/C(C#N)=C/c1ccc(F)cc1F		inconclusive [inhibitor, single point]
O=C(COC(=O)C12CC3CC(CC(C3)C1)C2)Nc1ccc([N+](=O)[O-])cc1Br		inconclusive [inhibitor, partial curve, poor fit]
COc1ccccc1NS(=O)(=O)c1ccc(C)c(C(=O)NCC2CCCO2)c1 (stereo not drawn)	inactive: -0.426%	
COc1cc(C(=O)O)ccc1Cl	inactive: 32.3%	
COCCOC(=O)c1c(NC(=O)CN2CCCc3ccccc32)sc(C(N)=O)c1C		inconclusive [inhibitor, single point]
O=C1C=CC(=O)N1c1cccc2cccnc12		inconclusive [inhibitor, single point]
Cc1cc(C)c(NC(=O)CS)c(Cl)c1		inconclusive [inhibitor, single point]
